Measured values as given in PubChem BioAssay AID2060490 (Molecular Pharmacology Branch, DTP, NCI, 2025).
Certain results were filed several times, with different values. Only these are listed. The source may hold further records. The records of an entry are repeated measurements (runs, samples, wells, individuals or studies). Counts like (3×) say how often a value occurs here.

System: 885512-296-R-J2-PDC complex spheroid viability
Assay: Anticancer human tumor 885512-296-R-J2-PDC patient-derived breast carcinoma cell line growth inhibition [GQUAD]
Settings: for viability, T/C: stronger effect = lower value; for IC50: compound alone
Description: DNA G-quadruplex Stabilizer Agents in Combinations in Complex Spheroids
A high-throughput screen of multi-cell type tumor spheroids was designed to identify active combinations of DNA G-quadruplex stabilizer agents and targeted small molecules. Complex spheroids include a stromal component modeled by human endothelial cells (HUVEC) and fibroblasts modeled by human mesenchymal stem cells (MSCs). The concentration ranges selected for each drug and investigational agent were based upon clinically achievable concentrations if the clinical Cmax of the agent was known.
Compounds. The drugs and investigational agents: pidnarulex (CX-5461; NSC782164), APTO-253 (NSC789042), BRACO-19 (NSC847499), peposertib (NSC802822), ceralasertib (NSC780249), elimusertib (NSC800525), camonsertib (NSC841442), AZD-1390 (NSC803789), olaparib (NSC753686), talazoparib (NSC767125), ART-558 (NSC835418), sotorasib (NSC818433), MRTX-1133 (NSC836407), SN-38 (NSC673596), topotecan (NSC609699), etoposide (NSC141540), doxorubicin (NSC123127), gemcitabine (NSC613327), 5-fluorouracil (NSC19893), paclitaxel (NSC125973), vemurafenib (NSC761431), panobinostat (NSC761190), R-306465 (JNJ-16241199; NSC773264), adavosertib (NSC754352), TP-3654 (NSC805149), carboplatin (NSC241240), KSQ-4279 (NSC840948), and staurosporine (NSC755774) were obtained from the National Cancer Institute (NCI) Developmental Therapeutics Program Chemical Repository (34). The FDA-approved anticancer drug set is available from the NCI Developmental Therapeutics Program. […] The stock solutions were prepared in dimethyl sulfoxide (DMSO, Sigma-Aldrich, St. Louis, MO, cat. D2650) at 800-fold the tested concentration and stored at -70 degrees C prior to their use. All drugs and investigational agents were tested over a range starting from a high concentration at or near the clinical Cmax and decreasing in half-log increments. If the clinical Cmax for an agent had not been determined, the highest concentration tested was 10 microM.
2.3 Cell Culture. All cells were maintained in an incubator at 37 degrees C and 5% CO2 with 95% humidity. The PDC lines were cultured according to standard operating procedures established by the NCI PDMR. All PDCs were thawed and cultured in Matrigel-coated flasks prepared with a working solution of 1X Ham's F-12 nutrient mix, without supplementation (Invitrogen, cat. 11765054), 100 U/mL penicillin-streptomycin (Invitrogen, cat. 15140122), and 2.5% Matrigel (Corning Inc., cat. 354248) for the first three passages. The 857933-349-R-J2-PDC line was cultured in 6C/Colon 1B media, which includes advanced DMEM/F-12 (Thermo Fisher Scientific, cat. 12634028), 10 mM HEPES (Thermo Fisher Scientific, cat. 15630080), 1X GlutaMAX supplement (Thermo Fisher Scientific, cat. 35050061), 0.1 mg/mL primocin (InvivoGen, cat. ant-pm-2), 10% defined fetal bovine serum, heat inactivated (HyClone Laboratories Inc., cat. SH30070.03HI), 50% L-WRN conditioned media (ATCC, cat. CRL-3276), 1.25 mM N-Acetyl-L-cysteine (Sigma-Aldrich, cat. A9165), 10 mM nicotinamide (Sigma-Aldrich, cat. N0636), 1X B-27 supplement (Thermo Fisher Scientific, cat. 17504044), 1X N-2 supplement (Thermo Fisher Scientific, cat. 17502048), 10 microM Y-27632 dihydrochloride (Tocris Bioscience, cat. 1254), and 50 ng/mL human EGF recombinant protein (Thermo Fisher Scientific, cat. PHG0311). The 485176-168-R4-J1-PDC line was cultured in Panc media, which includes all 6C/Colon 1B media components plus 100 ng/mL human FGF-10 (Thermo Fisher Scientific, cat. 100-26), 500 nM SB-431542 (Selleckchem, cat. S1067), and gastrin (Tocris, cat. 3006).
[…]
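Also: spheroids exposed to the compounds for one week.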
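For viability, T/C in this document: percent of tumor spheroid viability relative to DMSO vehicle control wells.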

Compound | viability, T/C (compound alone 3.16 µM) | IC50 | viability, T/C (compound alone 10 µM) | viability, T/C (compound alone 0.1 µM) | further results
Cc1[nH]c2ccc(F)cc2c1-c1nc2c3cccnc3c3ncccc3c2[nH]1 | 25.6, 19.3, 22, 20.8, 16.1, 37.9, 12.7, 12.2, 8.41, 9.48, 10.6, 9.88% |  |  |  | 
C=CCn1c(=O)c2cnc(Nc3ccc(N4CCN(C)CC4)cc3)nc2n1-c1cccc(C(C)(C)O)n1 | 3.36%, 99.1%, 2.68% | 377 nM, 7.59 µM, 314 nM | 2.77%, 34.1%, 2.62% |  | 
Cc1cnc(CNC(=O)c2c(=O)c3ccc(N4CCCN(C)CC4)nc3n3c2sc2ccccc23)cn1 |  |  |  | 63.4, 68.6, 68.2, 49, 59.4, 61.9, 58.4, 61, 74.8, 63.1, 64.5, 69.7% | 
Cc1[nH]c2ccccc2c1CCNCc1ccc(/C=C/C(=O)NO)cc1 |  | 41.1 nM, > 316 nM, 26 nM |  |  | viability, T/C (compound alone 0.316 µM): 4%, 77%, 4.3%
CCCS(=O)(=O)Nc1ccc(F)c(C(=O)c2c[nH]c3ncc(-c4ccc(Cl)cc4)cc23)c1F | 96.9%, 2.52%, 89.9% | > 10 µM, 451 nM, 7.36 µM | 61.3%, 3.42%, 35.7% |  | 
CC(=O)O[C@H]1C(=O)[C@@]2(C)[C@H]([C@H](OC(=O)c3ccccc3)[C@]3(O)C[C@H](OC(=O)[C@H](O)[C@@H](NC(=O)c4ccccc4)c4ccccc4)C(C)=C1C3(C)C)[C@]1(OC(C)=O)CO[C@@H]1C[C@@H]2O |  |  |  | 3.6%, 52.8%, 3.36% | 
COc1ncnc(C2CC2)c1-c1ncc2cnn(Cc3ccc(-c4nc(C(F)(F)F)cn4C(C)C)cc3)c2n1 |  | > 10 µM (2×) and 579 nM | 98.5%, 2.48%, 87.2% |  | 
O=C(NO)c1cnc(N2CCN(S(=O)(=O)c3ccc4ccccc4c3)CC2)nc1 |  |  |  | 76.8%, 2.91%, 55.6% | viability, T/C (compound alone 0.0316 µM): 85.8%, 5.24%, 78.8%
